The campaign covered roughly 150,000 compounds. About 540 (0.36%) showed an effect of 50% or more. Some of the results follow.

The assay deals with Plasmodium falciparum. Description: Primary screen in NF54 nanoGlo assay, in single point, at 2uM, 72h; a lower Z score goes with more inhibition. The format is functional, Erythrocyte. Conditions: timepoint 72 hour.
Take `CN(C[C@@H]1C[C@H](F)CN1c1ccncn1)c1ccnc2ccncc12`: the % Inhibition (in general, the drop in the measured response relative to a control, in per cent) is given as -4% and the Z score is 0.56.

As to `O=C(c1ccnc2cc(Cl)ccc12)N1CCOC[C@H]1C1CCC1`, the “% Inhibition” value was -6% and the Z score is listed as 0.97.

Take `Nc1ncc(C(=O)N2CCC(CNC(=O)c3cc4cc(F)ccc4[nH]3)CC2)s1`: the “% Inhibition” value is listed as -5% and the Z score is recorded as 0.82.

In the case of `CCOCC1CCN(C(=O)Cc2ccn(-c3ccc(F)cc3)n2)CC1`, the “% Inhibition” value was -13% and the Z score was 2.82.

Regarding `CC1CCCN(c2cc(NC3CCCC3O)ncn2)C1` (configuration not stated), the “% Inhibition” value is given as 5% and the Z score is reported as -1.09.

As to `CC(C)(C)OC(=O)NCc1cn([C@H]2CCCN(c3ncnc4[nH]ccc34)C2)nn1`, the “% Inhibition” value is listed as -11% and the Z score is 2.21.

For the molecule `CCc1nc(NCCN2CCN(Cc3ccccc3)CC2)ncc1C`, the “% Inhibition” value is listed as -2% and the Z score is recorded as 0.49.

`CCN1CCN(CCCNC(=O)c2cc3c(C)cc(F)cc3[nH]2)CC1`: the “% Inhibition” value is -4% and the Z score came out at 0.61.

For `CN1CCC[C@H]1C(=O)NCC1CCN(Cc2ccccc2-c2ccccc2)CC1`, the “% Inhibition” value is recorded as 4% and the Z score was -0.7.

In the case of `Cc1cnc(NCc2ccccc2N2CCO[C@@H](C)C2)s1`, the “% Inhibition” value was found to be 4% and the Z score was -0.74.

Turning to `O=C(NCCN1CCCOC1=O)c1ccc(-c2cnn3ccccc23)cc1`, the “% Inhibition” value is on record as 4% and the Z score is on record as -0.66.

Turning to `Cc1ccccc1-c1cccc(NC(=O)NCC[C@H](C)N2CCN(C)CC2)c1`, the “% Inhibition” value is on record as -16% and the Z score turned out to be 2.7.

For the molecule `C=C(C)CN=C(NC1CCCN(C2CCCCC2)C1)C(C#N)C(=O)Nc1ccnn1C` (configuration not stated), the “% Inhibition” value turned out to be 1% and the Z score is recorded as -0.19.

`c1ccc(CNc2ccc(-c3noc(C45CCCN(CCC4)C5)n3)cn2)cc1`: the “% Inhibition” value turned out to be 81% and the Z score is recorded as -17.51.

As for `CN(CC1(N2CCCCC2)CCCCC1)c1nc(N)c2cnn(C)c2n1`, the “% Inhibition” value came out at 0% and the Z score is reported as -0.06.

In the case of `Clc1cc(Cl)cc(CNCCCNc2ncccn2)c1`, the “% Inhibition” value is -12% and the Z score worked out at 1.79.

As for `N#Cc1ccccc1N1CCC(Nc2nccc(Oc3ccc(F)cc3)n2)CC1`, the “% Inhibition” value is on record as -32% and the Z score turned out to be 5.65.

In the case of `O=C1CCNC(=O)c2cc(OCC3CC3)cc(c2)Oc2cccc(c2)COC2CCNCC2N1` (configuration not stated), the “% Inhibition” value is -8% and the Z score was 1.64.

As for `Cc1nc(N2CCOCC2)ccc1NCc1ccc(C2CC2C)o1` (configuration not stated), the “% Inhibition” value is recorded as -7% and the Z score was determined as 1.05.

Regarding `Cc1cccc(N2CCC(N3CCC(c4ccnc(N)n4)CC3)CC2)c1C`, the “% Inhibition” value was found to be 4% and the Z score is -0.55.

As for `Cc1cc(C(=O)N[C@@H](C)c2ccc(Cl)cn2)nc2ccccc12`, the “% Inhibition” value is reported as -6% and the Z score was determined as 1.21.

For the molecule `CN1CCCN(CC(=O)NC2CCN(Cc3cccnc3)CC2O)CC1` (configuration not stated), the “% Inhibition” value is listed as -12% and the Z score was found to be 2.39.

Take `CN1CCC[C@@H]1CCn1ccc(-c2cccc(-c3cnn(C)c3)c2)n1`: the “% Inhibition” value was -3% and the Z score was 0.46.

For `Cc1nc(NC[C@@H](C(C)C)N2CCN(C)CC2)c2c(-c3ccccc3)csc2n1`, the “% Inhibition” value is on record as 8% and the Z score is given as -1.2.

Turning to `CC1CN(c2ccccc2NC(=O)c2cnc(-c3ccncc3)s2)CC(C)O1` (configuration not stated), the “% Inhibition” value was -10% and the Z score turned out to be 1.58.

Take `O[C@H]1CCCN(c2ccnc(NCCc3n[nH]c(-c4ccncc4)n3)n2)C1`: the “% Inhibition” value was -21% and the Z score worked out at 3.12.

For `Cc1ccc(F)cc1S(=O)(=O)N1CCN(c2nc(N3CCOCC3)nc(-n3ccnc3)n2)CC1`, the “% Inhibition” value is reported as -7% and the Z score is listed as 1.

Regarding `CN(C)c1ccc(NC2CCCCC2)nc1`, the “% Inhibition” value is given as -5% and the Z score came out at 1.17.

On to `Cc1ccc(OCc2cc(C(=O)N(C)Cc3nc4ccccc4[nH]3)no2)cn1`, for which the “% Inhibition” value is on record as -1% and the Z score is on record as 0.21.

In the case of `CC(C)Nc1cccc(CNS(=O)(=O)CCOC(C)C)c1`, the “% Inhibition” value was -1% and the Z score amounted to 0.18.

Turning to `COc1cc(N2CCN(Cc3ccc(Oc4cnccn4)cc3)CC2)ncn1`, the “% Inhibition” value was -5% and the Z score came to 0.73.

`OC(CNC1CCN(C2CCOC2)CC1)c1ccc(-c2ccccc2)cc1` (configuration not stated): the “% Inhibition” value turned out to be 15% and the Z score is -2.93.

Regarding `CN1C[C@@H](CNc2cc(C(F)(F)F)nc(N(C)C)n2)CC1=O`, the “% Inhibition” value is -3% and the Z score is listed as 0.45.

Take `CN(Cc1ccccc1O)C(=O)c1cccnc1Nc1cccc(F)c1`: the “% Inhibition” value is on record as -2% and the Z score is recorded as 0.29.

In the case of `COc1ccc(-c2cc(CN(C)C(=O)c3ccccc3-c3ncc(-c4ccccc4)o3)on2)cc1`, the “% Inhibition” value is recorded as -15% and the Z score is 2.6.

With `CS(=O)(=O)c1ccc2ncnc(NC3CCN(c4nccs4)CC3)c2c1`, the “% Inhibition” value is recorded as -14% and the Z score is recorded as 2.11.

As to `CC(C)Cc1nc2cc(NC(=O)[C@H](Cc3cn(C)c4ccccc34)NC(=O)OC(C)(C)C)ccc2[nH]1`, the “% Inhibition” value is given as -14% and the Z score came to 2.47.

Take `Cc1cc(C[C@H](C)NC(=O)Nc2cccc(N(C)C)c2C)n[nH]1`: the “% Inhibition” value is given as -3% and the Z score was determined as 0.6.

`CN1CCC(Oc2ccc(NCc3ccc(N(C)C)nc3)cn2)CC1`: the “% Inhibition” value is -17% and the Z score amounted to 3.56.

Take `Cc1ccc(CN[C@H]2CCN(c3ccn(C)n3)C2)c(-c2ccnn2C)c1`: the “% Inhibition” value was 4% and the Z score is listed as -0.53.

`COc1ccc(-c2ccnc(N[C@H]3CCC(=O)N(C)C3)n2)cc1`: the “% Inhibition” value is -3% and the Z score turned out to be 0.69.

The values are drawn from ChEMBL document CHEMBL5308541, “MAIP: An Open-Source Tool to Enrich High-Throughput Screening Output and Identify Novel, Druglike Molecules with Antimalarial Activity” (ACS Med Chem Lett, 2023).
